± gives the standard deviation of the averaged measurements. The list shows a part of the results.
System: PfAP2-G AP2 domain (GST-tagged)
Experiment: gcPBM binding intensity (ln(normalized median fluorescence intensity)); higher = stronger DNA binding
Summary of the method: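 DNA-binding domains from P. falciparum, fused to GST and produced in E. coli, were put on an Agilent 4 × 180k double-stranded probe array for 1 h in 1× PBS holding 1% milk, 0.2 mg/ml BSA, 0.5% salmon testes DNA and 0.03% Triton X-100. Probes were primer-extended, 36 bp long and drawn from intergenic genomic regions, with negative controls included. After Alexa488 anti-GST antibody detection and a 488 nm scan, binding intensity was set as the highest Masliner-normalised natural-log median intensity across replicate spots of either probe orientation.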

Sequence | gcPBM binding intensity (ln)
TTATATATATGACTTTGTACATATACATATTTTTTA [XGTACX_site4669] | 10.7 ± 0.54
GTATATTTTATTTTATGTACATATTCATTTTTTATT [XGTACX_site561] | 11.4 ± 0.66
ATTTTTTTACTGGATCCATATTTGCTTTTTTATTTA [CACACA_negctrl_site1108] | 10.27 ± 0.064
GTGGATATATGTATATGTACATATGTATGTATATAT [XGTACX_site2412] | 11.1 ± 0.46
TCTTACTAATTTATGGGGACTTATCACCTATTCAGT [CACACA_negctrl_site652] | 10.5 ± 0.23
AGTGGATAAATTTATTCACACATTTTTTTTTTTTTT [CACACA_site5914] | 9.8 ± 0.19
TTTTATGAGAAACACACACACAAAAAAAAAAAAAAA [CACACA_site4129] | 9.92 ± 0.61
TACATATATATATATGAACACACAAAAAGAATATTT [CACACA_site8421] | 9.97 ± 0.11
ATAAGCATACATATTACACACATATAATATATATAT [CACACA_site2487] | 10.1 ± 0.18
CATGAATCCTAATAATGTACATAAGAATTCATAATG [XGTACX_site1607] | 11 ± 0.65
TCAATAATAAAAAACACACACAAAAAAAAATAATTA [CACACA_site2798] | 10 ± 0.28
AACAAAGTCATACATACATACATATATATATATATA [GTGCAC_negctrl_site632] | 10 ± 0.27
TAAAAAAAAAAAAAAACACACATATAAATATTTATA [CACACA_site6702] | 9.55 ± 0.071
AAAAAAAAAAAAAAAACACACATACACATATATTTT [CACACA_site7768] | 10.3 ± 0.23
TATATTATTTATAGTAGTACATAAAATATAAATATT [XGTACX_site4417] | 11.4 ± 0.89
ATAATACATACATACATACACACATATATATATATT [CACACA_site3576] | 10.2 ± 0.13
TATTGTATTTCATATTGTACTAAAAAAAAAAAAAAG [XGTACX_site6694] | 11.2 ± 0.83
AAAAAAAAAAAAAATTGTACTTAAATATATATATAT [XGTACX_site7604] | 11.1 ± 0.8
TATTATTTTTCATATGCATGCAAAAATAAAAAAATA [TGCATGCA_site350] | 9.96 ± 0.23
TATAAAAAAAAAAAAAAAAAAAAAAATATATATATA [CACACA_negctrl_site817] | 9.6 ± 0.45
ATGAAAAAAAAAAAAAAAAAAAAAAAAAAAAAAATA [CACACA_negctrl_site1083] | 9.54 ± 0.2
ATTTTTTTGTATATATATGACTGGGGATATAATCAA [GTGCAC_negctrl_site274] | 10.1 ± 0.12

Sequence | gcPBM binding intensity (ln)
AAATTAAAATAAAATAGTACATATATTTATATTTTT [XGTACX_site1687] | 11.1 ± 0.69
TTTTGGTGTATAGTATTAATATAAAATAATTATATT [CACACA_negctrl_site47] | 10.2 ± 0.17
AATTTATATTTATGTGCATGTAATAACTGTATATAA [TGCATGCA_site349] | 10.2 ± 0.23
AAAAAAAGATTATACACACACATATATAAACATACA [CACACA_site4553] | 9.915 ± 0.007
ACATACATATATTTATGTACATATATATTTATGATT [XGTACX_site6485] | 11.2 ± 0.56
TTAGCTTATCATTACTGTACTTTATTCATATATATG [XGTACX_site8008] | 11.4 ± 0.84
TAAACATTCTTATATAGTACCCATATTAAAATATAC [XGTACX_site8014] | 10.8 ± 0.58
ATTTTTTTTTCTTGTACACACTATTTTATAATTTTA [CACACA_site6102] | 11.6 ± 0.93
TTTTTTTTTGAAAAAAGTACTTAATTTTTAAGAAGA [XGTACX_site3591] | 11.2 ± 0.85
TCTAATAATAAATACACACACATATATATTTATATA [CACACA_site5169] | 9.99 ± 0.15
ATACAGATAGGATGCACACATAATTCAAATACAATA [CACACA_site4531] | 10.2 ± 0.13
ATATAATAATAATATTGTACAATAAAAAATATATAT [XGTACX_site7350] | 10.9 ± 0.5
ATGTCAAGAACTGAACGTACAAACTTTGTAATATTG [XGTACX_site8754] | 11.1 ± 0.64
AGTAATAATCGGCATGCATGTCAGTGGTAGTATATA [TGCATGCA_site312] | 10.3 ± 0.41
AAATTTTATGTATAATGTACACATAAATTTTTCTTT [XGTACX_site7266] | 11.4 ± 0.76
GTCAACAAGAATTAAGTGCATAATTTTTTATTAAAT [GTGCAC_site9492] | 10 ± 0.11
TTAAGTAGTACATACACACACATATACAAAAAGAAA [CACACA_site3972] | 11.7 ± 1.2
TACTTTTTTCCTATTATGTTTCTTATTTTTATAAAT [XGTACX_negctrl_site561] | 10.3 ± 0.2
AAGGAATGCATATAGGTGCTACACATAAAAATAAAA | 10.1 ± 0.057
TATTATTTTAATTATTCACACATTATTATAAAAATT [CACACA_site5538] | 9.89 ± 0.085
CATATACACGAACACACACACATATAAATAAATATA [CACACA_site6379] | 10.3 ± 0.37
AGTAAAAAAAAAAAAAAAAAAAAAAAAAAAAAAAAA [GTGCAC_negctrl_site147] | 9.81
